Experimental data published in the CheMixHub viscosity set.
The source gives many values for each of these; only a part stands here.

Assay: xn = mol fraction of the nth substance listed
Conditions: 323.15 K, 101 kPa

CN(C)CCO + O
Conditions	viscosity [mPa·s]
x1 = 0.05	1.13
x1 = 0.1003	1.875
x1 = 0.1993	3.35
x1 = 0.2947	4.204
x1 = 0.3489	4.37
x1 = 0.4004	4.339
x1 = 0.453	4.193
x1 = 0.504	3.946
x1 = 0.6047	3.408
x1 = 0.7044	2.859
x1 = 0.8062	2.405
x1 = 0.9046	2.02
